Source: the supplement of paper PMC10037445
± gives the standard deviation of the averaged measurements. Whole data set: some 2,900 compounds, median “NF-kB SEAP reporter activity, fold change vs agonist alone” near 0.99, cut for the highest 2% near 2.6. The list shows a part of the results.

How the values were obtained:
[1] = tested on: RAW-Dual; test: NF-kB SEAP reporter activity, fold change vs agonist alone; higher = enhanced NF-kB activity
Outline: (§1)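 Library stock was pin-tooled at 50 nL into 384-well plates of RAW-Dual macrophages (50,000 cells/well, DMEM), followed 1 h later by a PRR agonist, and the cells were kept at 37 °C, 5% CO2. Supernatant collected after 20 hours was read for IRF by QuantiLuc luminescence and for NF-κB by QuantiBlue absorbance at 620 nm. Reporter activity is fold change over agonist-alone wells, and a well counted as cytotoxic when its IncuCyte confluency was below 70% of agonist controls in both mask sets.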

[2] = tested on: RAW-Dual; test: NF-kB SEAP reporter activity, fold change vs agonist alone; cytotoxicity flag (confluency mask): not cytotoxic; higher = enhanced NF-kB activity
Outline: as §1

[3] = tested on: RAW-Dual; test: NF-kB SEAP reporter activity, fold change vs agonist alone; cytotoxicity flag (confluency mask): cytotoxic (confluency <70% of control); higher = enhanced NF-kB activity
Outline: as §1

[4] = library stock concentration (final ~1000-fold dilution): 10 mM, cytotoxicity flag (confluency mask): not cytotoxic, agonist: Imiquimod (TLR7) […]
[5] = library stock concentration (final ~1000-fold dilution): 10 mM, cytotoxicity flag (confluency mask): not cytotoxic, agonist: MPLA (TLR4) […]
[6] = agonist: ODN 1826 (TLR9) 0.5 ug/mL
[7] = agonist: Pam2CSK4 (TLR2/6) 0.1 ug/mL
[8] = agonist: Pam3CSK4 (TLR2/1) 0.1 ug/mL
[9] = library stock concentration (final ~1000-fold dilution): 10 mM, cytotoxicity flag (confluency mask): cytotoxic (confluency <70% of control), agonist: Imiquimod (TLR7) […]
[10] = library stock concentration (final ~1000-fold dilution): 10 mM, cytotoxicity flag (confluency mask): cytotoxic (confluency <70% of control), agonist: MPLA (TLR4) […]

CCCCNC(=O)NS(=O)(=O)c1ccc(C)cc1
NF-kB SEAP reporter activity [1, 4]: 0.867
NF-kB SEAP reporter activity [1, 5]: 1

CCCCNC(=O)NS(=O)(=O)c1ccc(C)cc1 (library stock concentration (final ~1000-fold dilution): 10 mM)
NF-kB SEAP reporter activity ([2]; agonist: LPS (TLR4) 0.1 ug/mL): 1.45
NF-kB SEAP reporter activity [2, 6]: 0.973
NF-kB SEAP reporter activity [2, 7]: 0.993
NF-kB SEAP reporter activity [2, 8]: 1.1

CCCC(C(=O)OCCN(CC)CC)(c1ccccc1)c1ccccc1.Cl (library stock concentration (final ~1000-fold dilution): 10 mM)
NF-kB SEAP reporter activity ([3]; agonist: LPS (TLR4) 0.1 ug/mL): 0.633
NF-kB SEAP reporter activity [3, 6]: 0.796
NF-kB SEAP reporter activity [3, 7]: 0.481
NF-kB SEAP reporter activity [3, 8]: 0.511

CCCC(C(=O)OCCN(CC)CC)(c1ccccc1)c1ccccc1.Cl
NF-kB SEAP reporter activity [1, 9]: 1.04
NF-kB SEAP reporter activity [1, 10]: 0.923

O=C(O)c1cc(-c2ccc(F)cc2F)ccc1O
NF-kB SEAP reporter activity [1, 5]: 1.02

O=C(O)c1cc(-c2ccc(F)cc2F)ccc1O (library stock concentration (final ~1000-fold dilution): 10 mM)
NF-kB SEAP reporter activity ([2]; agonist: LPS (TLR4) 0.1 ug/mL): 1.2
NF-kB SEAP reporter activity [2, 6]: 0.94
NF-kB SEAP reporter activity [2, 7]: 1.15
NF-kB SEAP reporter activity [2, 8]: 0.95

Br.Cc1ccc(Sc2ccccc2N2CCNCC2)c(C)c1 (library stock concentration (final ~1000-fold dilution): 10 mM)
NF-kB SEAP reporter activity ([3]; agonist: LPS (TLR4) 0.1 ug/mL): 0.697
NF-kB SEAP reporter activity [3, 6]: 0.271
NF-kB SEAP reporter activity [3, 7]: 0.438
NF-kB SEAP reporter activity [3, 8]: 0.404

Br.Cc1ccc(Sc2ccccc2N2CCNCC2)c(C)c1
NF-kB SEAP reporter activity [1, 9]: 0.905
NF-kB SEAP reporter activity [1, 10]: 1.43

Cc1ccc(S(=O)(=O)n2c(N)nc3ccccc32)cc1 (library stock concentration (final ~1000-fold dilution): 10 mM)
NF-kB SEAP reporter activity ([2]; agonist: LPS (TLR4) 0.1 ug/mL): 1.37 ± 0.34
NF-kB SEAP reporter activity [2, 6]: 0.658 ± 0.024
NF-kB SEAP reporter activity [2, 7]: 0.959 ± 0.19
NF-kB SEAP reporter activity [2, 8]: 1.06 ± 0.12

Cc1ccc(S(=O)(=O)n2c(N)nc3ccccc32)cc1
NF-kB SEAP reporter activity [1, 4]: 0.908 ± 0.12
NF-kB SEAP reporter activity [1, 5]: 1.04 ± 0.043

CC/C(C)=C/CC[C@](C)(O)C1CC[C@]2(C)C3C[C@@H](O[C@@H]4O[C@H](CO)[C@@H](O)[C@H](O)[C@H]4O[C@@H]4O[C@@H](C)[C@H](O)[C@@H](O)[C@H]4O)C4C(C)(C)C(O)CC[C@]4(C)C3C[C@H](O)C12 (stereo partly specified) (library stock concentration (final ~1000-fold dilution): 10 mM)
NF-kB SEAP reporter activity ([2]; agonist: LPS (TLR4) 0.1 ug/mL): 1.2
NF-kB SEAP reporter activity [2, 6]: 0.992
NF-kB SEAP reporter activity [2, 7]: 0.952
NF-kB SEAP reporter activity [2, 8]: 1.14

CC/C(C)=C/CC[C@](C)(O)C1CC[C@]2(C)C3C[C@@H](O[C@@H]4O[C@H](CO)[C@@H](O)[C@H](O)[C@H]4O[C@@H]4O[C@@H](C)[C@H](O)[C@@H](O)[C@H]4O)C4C(C)(C)C(O)CC[C@]4(C)C3C[C@H](O)C12 (stereo partly specified)
NF-kB SEAP reporter activity [1, 4]: 0.952
NF-kB SEAP reporter activity [1, 5]: 0.934

CNC(=O)c1ccc(-c2cnc3ncc(Cc4ccc5ncccc5c4)n3n2)cc1F
NF-kB SEAP reporter activity ([1]; library stock concentration (final ~1000-fold dilution): 2 mM, cytotoxicity flag (confluency mask): not cytotoxic, agonist: Imiquimod (TLR7) […]): 0.618
NF-kB SEAP reporter activity ([1]; library stock concentration (final ~1000-fold dilution): 2 mM, cytotoxicity flag (confluency mask): not cytotoxic, agonist: MPLA (TLR4) […]): 1.02

CNC(=O)c1ccc(-c2cnc3ncc(Cc4ccc5ncccc5c4)n3n2)cc1F (library stock concentration (final ~1000-fold dilution): 2 mM)
NF-kB SEAP reporter activity ([2]; agonist: LPS (TLR4) 0.1 ug/mL): 1.1
NF-kB SEAP reporter activity [2, 6]: 1
NF-kB SEAP reporter activity [2, 7]: 1.18
NF-kB SEAP reporter activity [2, 8]: 1.19

O=C(NCc1ccncc1)C12CC3CC(C1)CC(c1ccc(Cl)cc1)(C3)C2
NF-kB SEAP reporter activity [1, 4]: 0.691
NF-kB SEAP reporter activity [1, 5]: 0.826

O=C(NCc1ccncc1)C12CC3CC(C1)CC(c1ccc(Cl)cc1)(C3)C2 (library stock concentration (final ~1000-fold dilution): 10 mM)
NF-kB SEAP reporter activity ([2]; agonist: LPS (TLR4) 0.1 ug/mL): 0.536
NF-kB SEAP reporter activity [2, 6]: 0.751
NF-kB SEAP reporter activity [2, 7]: 0.89
NF-kB SEAP reporter activity [2, 8]: 0.635

CCOc1ccc2c(c1)C(C)=CC(C)(C)N2
NF-kB SEAP reporter activity [1, 4]: 0.871
NF-kB SEAP reporter activity [1, 5]: 1.09

CCOc1ccc2c(c1)C(C)=CC(C)(C)N2 (library stock concentration (final ~1000-fold dilution): 10 mM)
NF-kB SEAP reporter activity ([2]; agonist: LPS (TLR4) 0.1 ug/mL): 1.1
NF-kB SEAP reporter activity [2, 6]: 1.12
NF-kB SEAP reporter activity [2, 7]: 1
NF-kB SEAP reporter activity [2, 8]: 1.05

COc1ccc(-c2cnc3c(-c4cccc5ncccc45)cnn3c2)cc1 (library stock concentration (final ~1000-fold dilution): 10 mM)
NF-kB SEAP reporter activity ([2]; agonist: LPS (TLR4) 0.1 ug/mL): 0.884
NF-kB SEAP reporter activity [2, 6]: 0.868
NF-kB SEAP reporter activity [2, 7]: 0.95
NF-kB SEAP reporter activity [2, 8]: 0.725

COc1ccc(-c2cnc3c(-c4cccc5ncccc45)cnn3c2)cc1
NF-kB SEAP reporter activity [1, 4]: 0.847
NF-kB SEAP reporter activity [1, 5]: 0.98

CC(/C=C/C=C(\C)C(=O)OC1OC(COC2OC(CO)C(O)C(O)C2O)C(O)C(O)C1O)=C\C=C\C=C(C)\C=C\C=C(/C)C(=O)OC1OC(COC2OC(CO)C(O)C(O)C2O)C(O)C(O)C1O (stereo unspecified)
NF-kB SEAP reporter activity [1, 4]: 0.915
NF-kB SEAP reporter activity [1, 5]: 1.03

CC(/C=C/C=C(\C)C(=O)OC1OC(COC2OC(CO)C(O)C(O)C2O)C(O)C(O)C1O)=C\C=C\C=C(C)\C=C\C=C(/C)C(=O)OC1OC(COC2OC(CO)C(O)C(O)C2O)C(O)C(O)C1O (stereo unspecified) (library stock concentration (final ~1000-fold dilution): 10 mM)
NF-kB SEAP reporter activity ([2]; agonist: LPS (TLR4) 0.1 ug/mL): 1.08
NF-kB SEAP reporter activity [2, 6]: 0.948
NF-kB SEAP reporter activity [2, 7]: 1.16
NF-kB SEAP reporter activity [2, 8]: 1.19

Cc1ccc(C2OC(CO)C(O)C(O)C2O)cc1Cc1ccc(-c2ccc(F)cc2)s1 (stereo unspecified)
NF-kB SEAP reporter activity [1, 4]: 1.47
NF-kB SEAP reporter activity [1, 5]: 0.973

Cc1ccc(C2OC(CO)C(O)C(O)C2O)cc1Cc1ccc(-c2ccc(F)cc2)s1 (stereo unspecified) (library stock concentration (final ~1000-fold dilution): 10 mM)
NF-kB SEAP reporter activity ([2]; agonist: LPS (TLR4) 0.1 ug/mL): 1.44
NF-kB SEAP reporter activity [2, 6]: 0.941
NF-kB SEAP reporter activity [2, 7]: 0.915
NF-kB SEAP reporter activity [2, 8]: 0.958
